# Laboratory results reported in the supplement of paper PMC8728848.
# This is one part of the list.
# Columns and labels:
# Assay in all cases: glycan array binding signal (z-score within array); higher = stronger binding
# Details in all cases: glycan notation: IUPAC condensed, linker removed
# [1] = molecular target: Neu5Ac(a2-3)Gal(b1-4)GlcNAc(b1-3)[Neu5Ac(a2-3)Gal(b1-4)GlcNAc(b1-6)]GalNAc
# Outline: (§1)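 Glycan array data were curated from 3228 arrays in the Consortium for Functional Glycomics database and kept only where the protein sequence was available. Glycan names were converted to IUPAC-condensed notation, and columns mapping to the same glycan were averaged. The binding signal is a within-array Z-score, averaged across arrays of the same protein sequence at different concentrations or buffers and across linkers. Negative Z-scores can be read as non-binding.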
# [2] = molecular target: Neu5Ac(a2-3)Gal(b1-4)GlcNAc(b1-6)GalNAc
# Outline: as §1
# [3] = molecular target: Neu5Ac(a2-3)Gal(b1-4)GlcNAc(b1-6)[Gal(b1-3)]GalNAc
# Outline: as §1
# [4] = molecular target: Neu5Ac(a2-3)Gal(b1-4)GlcNAc(b1-6)[Neu5Ac(a2-3)Gal(b1-3)]GalNAc
# Outline: as §1
# [5] = molecular target: Neu5Ac(a2-3)Gal(b1-4)GlcNAc6S
# Outline: as §1
# [6] = molecular target: Neu5Ac(a2-3)Gal(b1-4)[Fuc(a1-3)]GlcNAc
# Outline: as §1
# [7] = molecular target: Neu5Ac(a2-3)Gal(b1-4)[Fuc(a1-3)]GlcNAc(b1-2)Man
# Outline: as §1
# [8] = molecular target: Neu5Ac(a2-3)Gal(b1-4)[Fuc(a1-3)]GlcNAc(b1-3)Gal
# Outline: as §1
# [9] = molecular target: Neu5Ac(a2-3)Gal(b1-4)[Fuc(a1-3)]GlcNAc(b1-3)Gal(b1-4)GlcNAc
# Outline: as §1
# [10] = molecular target: Neu5Ac(a2-3)Gal(b1-4)[Fuc(a1-3)]GlcNAc(b1-3)Gal(b1-4)[Fuc(a1-3)]GlcNAc(b1-3)Gal(b1-4)[Fuc(a1-3)]GlcNAc
# Outline: as §1
# [11] = molecular target: Neu5Ac(a2-3)Gal(b1-4)[Fuc(a1-3)]GlcNAc(b1-3)GalNAc
# Outline: as §1
# [12] = molecular target: Neu5Ac(a2-3)Gal(b1-4)[Fuc(a1-3)]GlcNAc(b1-6)[Gal(b1-3)]GalNAc
# Outline: as §1
# [13] = molecular target: Neu5Ac(a2-3)Gal(b1-4)[Fuc(a1-3)]GlcNAc(b1-6)[Neu5Ac(a2-3)Gal(b1-3)]GalNAc
# Outline: as §1
# [14] = molecular target: Neu5Ac(a2-3)Gal(b1-4)[Fuc(a1-3)]GlcNAc6S
# Outline: as §1
# [15] = molecular target: Neu5Ac(a2-3)Gal6S(b1-4)GlcNAc
# Outline: as §1
# [16] = molecular target: Neu5Ac(a2-3)Gal6S(b1-4)[Fuc(a1-3)]GlcNAc
# Outline: as §1
# [17] = molecular target: Neu5Ac(a2-3)GalNAc
# Outline: as §1
# [18] = molecular target: Neu5Ac(a2-3)GalNAc(b1-4)GlcNAc
# Outline: as §1
# [19] = molecular target: Neu5Ac(a2-3)[GalNAc(b1-4)]Gal(b1-4)Glc
# Outline: as §1
# [20] = molecular target: Neu5Ac(a2-3)[GalNAc(b1-4)]Gal(b1-4)GlcNAc
# Outline: as §1
# [21] = molecular target: Neu5Ac(a2-3)[GalNAc(b1-4)]Gal(b1-4)GlcNAc(b1-3)GalNAc
# Outline: as §1
# [22] = molecular target: Neu5Ac(a2-3)[Neu5Ac(a2-6)]GalNAc
# Outline: as §1
# [23] = molecular target: Neu5Ac(a2-6)Gal
# Outline: as §1
# [24] = molecular target: Neu5Ac(a2-6)Gal(b1-3)GlcNAc(b1-3)[Gal(b1-4)GlcNAc(b1-6)]Gal(b1-4)Glc
# Outline: as §1
# [25] = molecular target: Neu5Ac(a2-6)Gal(b1-4)Glc
# Outline: as §1
# [26] = molecular target: Neu5Ac(a2-6)Gal(b1-4)GlcNAc
# Outline: as §1
# [27] = molecular target: Neu5Ac(a2-6)Gal(b1-4)GlcNAc(b1-2)Man
# Outline: as §1
# [28] = molecular target: Neu5Ac(a2-6)Gal(b1-4)GlcNAc(b1-2)Man(a1-3)Man(b1-4)GlcNAc(b1-4)GlcNAc
# Outline: as §1
# [29] = molecular target: Neu5Ac(a2-6)Gal(b1-4)GlcNAc(b1-2)Man(a1-3)[Gal(b1-4)GlcNAc(b1-2)Man(a1-6)]Man(b1-4)GlcNAc(b1-4)GlcNAc
# Outline: as §1
# [30] = molecular target: Neu5Ac(a2-6)Gal(b1-4)GlcNAc(b1-2)Man(a1-3)[GlcNAc(b1-2)Man(a1-6)]Man(b1-4)GlcNAc(b1-4)GlcNAc
# Outline: as §1
# [31] = molecular target: Neu5Ac(a2-6)Gal(b1-4)GlcNAc(b1-2)Man(a1-3)[GlcNAc(b1-4)][Neu5Ac(a2-6)Gal(b1-4)GlcNAc(b1-2)Man(a1-6)]Man(b1-4)GlcNAc(b1-4)GlcNAc
# Outline: as §1
# [32] = molecular target: Neu5Ac(a2-6)Gal(b1-4)GlcNAc(b1-2)Man(a1-3)[Man(a1-6)]Man(b1-4)GlcNAc(b1-4)GlcNAc
# Outline: as §1
# [33] = molecular target: Neu5Ac(a2-6)Gal(b1-4)GlcNAc(b1-2)Man(a1-3)[Neu5Ac(a2-3)Gal(b1-4)GlcNAc(b1-2)Man(a1-6)]Man(b1-4)GlcNAc(b1-4)GlcNAc
# Outline: as §1
# [34] = molecular target: Neu5Ac(a2-6)Gal(b1-4)GlcNAc(b1-2)Man(a1-3)[Neu5Ac(a2-6)Gal(b1-4)GlcNAc(b1-2)Man(a1-6)]Man(b1-4)GlcNAc(b1-4)GlcNAc
# Outline: as §1
# [35] = molecular target: Neu5Ac(a2-6)Gal(b1-4)GlcNAc(b1-2)Man(a1-3)[Neu5Ac(a2-6)Gal(b1-4)GlcNAc(b1-2)Man(a1-6)]Man(b1-4)GlcNAc(b1-4)[Fuc(a1-6)]GlcNAc
# Outline: as §1
# [36] = molecular target: Neu5Ac(a2-6)Gal(b1-4)GlcNAc(b1-2)Man(a1-6)Man(b1-4)GlcNAc(b1-4)GlcNAc
# Outline: as §1
# [37] = molecular target: Neu5Ac(a2-6)Gal(b1-4)GlcNAc(b1-2)Man(a1-6)[Gal(b1-4)GlcNAc(b1-2)Man(a1-3)]Man(b1-4)GlcNAc(b1-4)GlcNAc
# Outline: as §1
# [38] = molecular target: Neu5Ac(a2-6)Gal(b1-4)GlcNAc(b1-2)Man(a1-6)[GlcNAc(b1-2)Man(a1-3)]Man(b1-4)GlcNAc(b1-4)GlcNAc
# Outline: as §1
# [39] = molecular target: Neu5Ac(a2-6)Gal(b1-4)GlcNAc(b1-2)Man(a1-6)[Man(a1-3)]Man(b1-4)GlcNAc(b1-4)GlcNAc
# Outline: as §1
# [40] = molecular target: Neu5Ac(a2-6)Gal(b1-4)GlcNAc(b1-2)[Neu5Ac(a2-6)Gal(b1-4)GlcNAc(b1-4)]Man(a1-3)[GlcNAc(b1-4)][Neu5Ac(a2-6)Gal(b1-4)GlcNAc(b1-2)[Neu5Ac(a2-6)Gal(b1-4)GlcNAc(b1-6)]Man(a1-6)]Man(b1-4)GlcNAc(b1-4)GlcNAc
# Outline: as §1
# [41] = molecular target: Neu5Ac(a2-6)Gal(b1-4)GlcNAc(b1-2)[Neu5Ac(a2-6)Gal(b1-4)GlcNAc(b1-4)]Man(a1-3)[GlcNAc(b1-4)][Neu5Ac(a2-6)Gal(b1-4)GlcNAc(b1-4)Man(a1-6)]Man(b1-4)GlcNAc(b1-4)GlcNAc
# Outline: as §1
# [42] = molecular target: Neu5Ac(a2-6)Gal(b1-4)GlcNAc(b1-2)[Neu5Ac(a2-6)Gal(b1-4)GlcNAc(b1-6)]Man(a1-6)[Neu5Ac(a2-6)Gal(b1-4)GlcNAc(b1-2)Man(a1-3)][GlcNAc(b1-4)]Man(b1-4)GlcNAc(b1-4)GlcNAc
# Outline: as §1
# [43] = molecular target: Neu5Ac(a2-6)Gal(b1-4)GlcNAc(b1-3)Gal(b1-3)GlcNAc
# Outline: as §1
# [44] = molecular target: Neu5Ac(a2-6)Gal(b1-4)GlcNAc(b1-3)Gal(b1-4)GlcNAc
# Outline: as §1
# [45] = molecular target: Neu5Ac(a2-6)Gal(b1-4)GlcNAc(b1-3)Gal(b1-4)GlcNAc(b1-2)Man(a1-3)[Neu5Ac(a2-6)Gal(b1-4)GlcNAc(b1-3)Gal(b1-4)GlcNAc(b1-2)Man(a1-6)]GalNAc
# Outline: as §1
# [46] = molecular target: Neu5Ac(a2-6)Gal(b1-4)GlcNAc(b1-3)Gal(b1-4)GlcNAc(b1-3)Gal(b1-4)GlcNAc
# Outline: as §1
binder,measurement,setting,value
NKR-PIC (Mus musculus) (protein) GTGQKPSREKCCVFIQENLNKTTDCSVNLECPQDWLLHRDKCFHVSQVSNTWEEGQADCGRKGATLLLIQDQEELRFLLDSIKEKYNSFWIGLRFTLPDMNWKWINGTTFNSDVLKITGVTENGSCASILGDKVTPESCASDNRWICQKELNHETPSNDSGT,glycan array binding signal (z-score),[1],-0.35
same,glycan array binding signal (z-score),[2],-0.363
same,glycan array binding signal (z-score),[3],-0.393
same,glycan array binding signal (z-score),[4],-0.339
same,glycan array binding signal (z-score),[5],-0.21
same,glycan array binding signal (z-score),[6],-0.275
same,glycan array binding signal (z-score),[7],-0.375
same,glycan array binding signal (z-score),[8],-0.239
same,glycan array binding signal (z-score),[9],-0.176
same,glycan array binding signal (z-score),[10],-0.253
same,glycan array binding signal (z-score),[11],-0.211
same,glycan array binding signal (z-score),[12],-0.305
same,glycan array binding signal (z-score),[13],-0.328
same,glycan array binding signal (z-score),[14],-0.29
same,glycan array binding signal (z-score),[15],-0.253
same,glycan array binding signal (z-score),[16],-0.391
same,glycan array binding signal (z-score),[17],-0.388
same,glycan array binding signal (z-score),[18],-0.289
same,glycan array binding signal (z-score),[19],-0.289
same,glycan array binding signal (z-score),[20],-0.391
same,glycan array binding signal (z-score),[21],-0.362
same,glycan array binding signal (z-score),[22],-0.358
same,glycan array binding signal (z-score),[23],-0.258
same,glycan array binding signal (z-score),[24],-0.262
same,glycan array binding signal (z-score),[25],-0.292
same,glycan array binding signal (z-score),[26],-0.335
same,glycan array binding signal (z-score),[27],-0.298
same,glycan array binding signal (z-score),[28],-0.251
same,glycan array binding signal (z-score),[29],-0.178
same,glycan array binding signal (z-score),[30],-0.338
same,glycan array binding signal (z-score),[31],-0.24
same,glycan array binding signal (z-score),[32],-0.297
same,glycan array binding signal (z-score),[33],-0.375
same,glycan array binding signal (z-score),[34],-0.232
same,glycan array binding signal (z-score),[35],-0.329
same,glycan array binding signal (z-score),[36],-0.392
same,glycan array binding signal (z-score),[37],-0.356
same,glycan array binding signal (z-score),[38],-0.379
same,glycan array binding signal (z-score),[39],-0.238
same,glycan array binding signal (z-score),[40],-0.383
same,glycan array binding signal (z-score),[41],-0.342
same,glycan array binding signal (z-score),[42],-0.337
same,glycan array binding signal (z-score),[43],-0.29
same,glycan array binding signal (z-score),[44],-0.344
same,glycan array binding signal (z-score),[45],-0.298
same,glycan array binding signal (z-score),[46],-0.278
